This passage reports cytotoxicity call results from the antibiotic and cytotoxicity screens of Wong et al. (2023).

This is one part of the list.

This assay has as its system HSkMC (human skeletal muscle cells). Kind of assay: cytotoxicity call (relative viability < 0.9). As to conditions: 10 µM.
On to `COc1ccc(NC(=O)Nc2ccc3c(c2)C(=O)N([C@@H](C)CO)C[C@@H](C)[C@H](CN(C)S(=O)(=O)c2cn(C)cn2)O3)cc1`, for which the cytotoxicity call was “inactive”. In the case of `CC(C)N1CC[C@@H](CN(C)Cc2ccc(C(=O)O)cc2)Oc2cc(-c3ccc(C(F)(F)F)cc3)ccc2S1(=O)=O` it was “inactive”; in that of `COCC#Cc1ccc2c(c1)O[C@@H](CN(C)S(=O)(=O)c1ccc(F)cc1)[C@@H](C)CN([C@H](C)CO)S2(=O)=O`, “inactive”; in that of `Cc1noc(C)c1NC(=O)N(C)C[C@H]1Oc2ccc(NC(=O)CCCN(C)C)cc2C(=O)N([C@@H](C)CO)C[C@H]1C`, “inactive”. To `COCCNC(=O)C[C@@H]1C[C@@H]2c3cc(NC(=O)CN(C)C)ccc3O[C@@H]2[C@@H](CO)O1` belongs “inactive”; to `CO[C@H](CN(C)C(=O)c1ccccc1F)[C@@H](C)CN([C@@H](C)CO)S(=O)(=O)c1ccc(Cl)cc1`, “inactive”. In the case of `O=C(Nc1ccccc1)C1=C[C@@H](c2ccc3c(c2)Cc2ccccc2-3)C[C@@H](OCc2ccc(CO)cc2)O1` it was “inactive”; in that of `COc1ccc(NC(=O)Nc2ccc3c(c2)C(=O)N([C@H](C)CO)C[C@H](C)[C@@H](CN(C)C(=O)Nc2ccccc2)OCCCC[C@@H](C)O3)cc1`, “inactive”; in that of `CC(C)CNC(=O)C(=O)NC[C@H]1OCCN1S(=O)(=O)c1ccc2c(c1)OCCO2`, “inactive”. As to `C[C@H]1CN([C@@H](C)CO)C(=O)c2cc(NC(=O)Nc3ccc(C(F)(F)F)cc3)ccc2O[C@H]1CN(C)Cc1ccccc1`, the cytotoxicity call was “active”.

On to `CN1CCN(C(=O)C[C@H]2CC[C@H](NC(=O)Cc3ccccn3)[C@H](CO)O2)CC1`, for which the cytotoxicity call was “inactive”.

Take `CN(C)CCCNC(=O)C[C@@H]1CC[C@H]2[C@@H](COc3ccc(NC(=O)NC4CCCC4)cc3C(=O)N2C)O1`: the cytotoxicity call was “inactive”. To `COc1ccc(NC(=O)Nc2ccc3c(c2)CC(=O)N([C@@H](C)CO)C[C@H](C)[C@@H](CN(C)Cc2ccc(Cl)c(Cl)c2)O3)cc1` belongs “inactive”. On to `CO[C@@H]1CN(C)C(=O)c2ccc(NS(=O)(=O)c3ccccc3F)cc2OC[C@@H](C)N(S(C)(=O)=O)C[C@H]1C`, for which the cytotoxicity call was “inactive”. To `C[C@H]1CCCCO[C@@H](CN(C)S(=O)(=O)c2cccs2)[C@@H](C)CN([C@@H](C)CO)C(=O)c2cc(NC(=O)C3CCCCC3)ccc2O1` belongs “inactive”; to `CNC(=O)CO[C@H]1COC2(CCN(C(=O)c3ccn(C)n3)CC2)C1`, “inactive”. In the case of `C[C@@H]1CN([C@@H](C)CO)C(=O)c2cc(/C=C/c3ccccc3)cnc2O[C@H]1CN(C)C(=O)c1cnccn1`, the cytotoxicity call was “inactive”.

With `COCCCNC(=O)[C@@]1(Sc2ccc(C)cc2)CC(=O)N(C2CCCCC2)[C@@H]1c1ccc(CO)cc1I`, the cytotoxicity call was “inactive”. For `COc1ccc(S(=O)(=O)Nc2ccc3c(c2)C(=O)N([C@@H](C)CO)C[C@H](C)[C@H](CN(C)Cc2ccc(C(F)(F)F)cc2)OCCCC[C@H](C)O3)cc1`, the cytotoxicity call was “active”. In the case of `CCCCCCCCCCCCCCCCCCCC(=O)N[C@H]1CC[C@@]2(C)[C@@H](C1)C[C@@H](O)[C@@H]1[C@@H]2C[C@H](O)[C@]2(C)[C@@H]([C@H](C)CCC(=O)O)CC[C@@H]12` it was “active”. To `Cc1cc(O)c2c(c1)C(=O)c1cc(O)cc(O)c1C2=O` belongs “inactive”; to `C[C@H](CO)N1C[C@H](C)[C@@H](CN(C)C(=O)Cc2ccccc2)OCCCC[C@H](C)Oc2ccc(NC(=O)NC3CCCCC3)cc2C1=O`, “inactive”; to `CCC(=O)Nc1nn2c(C)nnc2s1`, “inactive”.

In the case of `COc1ccc(NC(=O)Nc2ccc3c(c2)CC(=O)N([C@@H](C)CO)C[C@@H](C)[C@@H](CN(C)Cc2ccc(C(F)(F)F)cc2)O3)cc1`, the cytotoxicity call is “inactive”. As for `C[C@@H]1CN([C@H](C)CO)C(=O)c2cc(NC(=O)Nc3cccc4ccccc34)ccc2O[C@@H](C)CCCCO[C@@H]1CN(C)Cc1ccccc1`, the cytotoxicity call was “inactive”. On to `CCC(=O)N1CCC[C@H](C(=O)O)C1`, for which the cytotoxicity call was “inactive”.

Regarding `C[C@@H]1CCCCO[C@@H](CN(C)CC2CCCCC2)[C@H](C)CN([C@H](C)CO)C(=O)c2cc(NC(=O)NC3CCCCC3)ccc2O1`, the cytotoxicity call is “inactive”. In the case of `NC(=O)c1cccc(CN2CCOCC2)c1` it was “inactive”; in that of `Clc1cccc(Cc2cn3cc(-c4ccccc4)nc3s2)c1`, “inactive”. To `C[C@@H]1CN([C@@H](C)CO)C(=O)Cc2cc(NS(C)(=O)=O)ccc2O[C@@H]1CN(C)S(=O)(=O)c1ccccc1` belongs “inactive”; to `C[C@@H]1CCCCO[C@@H](CN(C)Cc2ccc(C(=O)O)cc2)[C@@H](C)CN([C@@H](C)CO)C(=O)c2cc(NC(=O)Nc3cccc4ccccc34)ccc2O1`, “inactive”. In the case of `CN(C)Cc1cn(CC[C@H]2CC[C@H](N)[C@@H](CO)O2)nn1` it was “inactive”; in that of `COCC#Cc1ccc([C@@H]2[C@@H](CO)N3C(=O)CN(C(=O)C4CCOCC4)C[C@@H]23)cc1`, “inactive”. With `CN1C(=O)c2cc(NC(=O)c3cnccn3)ccc2OC[C@H]2O[C@@H](CC(=O)N[C@H]3CCN(Cc4ccccc4)C3)CC[C@H]21`, the cytotoxicity call is “inactive”.

With `CCS(=O)(=O)N1CCOC[C@]2(CN(c3cnn(C)c3)C(=O)CO2)C1`, the cytotoxicity call is “inactive”. To `C[C@@H]1CCCCO[C@@H](CN(C)S(=O)(=O)c2ccc(Cl)cc2)[C@@H](C)CN([C@@H](C)CO)C(=O)c2cc(NC(=O)Nc3ccccc3)ccc2O1` belongs “inactive”. To `COc1ccc(CN(C)C[C@@H]2Oc3ccc(NS(C)(=O)=O)cc3CC(=O)N([C@@H](C)CO)C[C@@H]2C)cc1` belongs “inactive”; to `O=C(CN1CCOCC1)NCC[C@H]1CC[C@H](NC(=O)Cc2ccccn2)[C@@H](CO)O1`, “inactive”. In the case of `CO[C@@H]1CN(C)C(=O)c2ccc(NS(=O)(=O)c3cn(C)cn3)cc2OC[C@@H](C)N(CCC(F)(F)F)C[C@@H]1C` it was “inactive”; in that of `C[C@@H]1CCCCO[C@H](CN(C)C(=O)C2CCCCC2)[C@@H](C)CN([C@@H](C)CO)C(=O)c2cc(NC(=O)Nc3ccccc3)ccc2O1`, “inactive”.
